A collection of fitness landscapes (doi:10.1016/j.celrep.2020.107928)
Whole data set: some 81,000 sequences, median “one-hybrid fitness for binding NBS DNA” near -0.1, cut for the highest 2% near 0.36. The list shows a part of the results.

B1: Caulobacter ParB omega fusion; a variant is named by its letters at X, in order, B8GW30 (parent)
chain: MESVVVGEPGMSEGRRGLGRGLSALLGEVDAAPAQAPGEQLGGSREAPIEILQRNPDQPRRTFREEDLEDLSNSIREKGVLQPILVRPSPDTAGEYQIVAGERAWRAAQRAGLKTVPIMVRELDDLAVLEIGIIENVQRADLNVLEEALSYKVLMEKFERTQENIAQTIGKSXSHVANXMRLLXLPDEVQSYLVSGELTAXHARAIAAAADPVALAKQIIEGGLSVRETEALARKAPNLSAGKSKGGRPPRVKDTDTQALESDLSSVLGLDVSIDHRGSTGTLTITYATLEQLDDLCNRLTRGI

Variants of: B1
Experiment: one-hybrid fitness for binding NBS DNA (the Noc-binding site; scaled: cognate 1, non-cognate 0); higher = stronger binding
Details: with NBS DNA site
In short: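 Bacterial one-hybrid selection in E. coli USO rpoZ- hisB- pyrF- with a HIS3 reporter carrying the site 19 bp from the promoter, screening Caulobacter ParB libraries with four specificity codons randomised (NNS). Cells grew 48 hours at 37°C on M9-minus-histidine plus 0.1 mM IPTG and 5 mM 3-AT. Plasmids before and after selection were Illumina-sequenced, three replicate libraries pooled, and variants under 10 reads dropped. Fitness is the log change in variant-to-wild-type read ratio, rescaled to cognate 1, non-cognate 0.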

Row | Variant | one-hybrid fitness for binding NBS DNA
1 | FCTT | ≤ 0.2
2 | CAKV | ≤ 0.2
3 | HQKG | ≤ 0.2
4 | SALC | ≤ 0.2
5 | QTYQ | ≤ 0.2
6 | IYEM | ≤ 0.2
7 | RWYY | ≤ 0.2
8 | WYMC | ≤ 0.2
9 | RATM | ≤ 0.2
10 | DPDG | ≤ 0.2
11 | QKTE | ≤ 0.2
12 | RPSK | ≤ 0.2
13 | QAYK | ≤ 0.2
14 | AYET | ≤ 0.2
15 | CNIS | ≤ 0.2
16 | TPTP | ≤ 0.2
17 | VHWA | ≤ 0.2
18 | TGKY | ≤ 0.2
19 | QCHV | 0.214
20 | EQKS | ≤ 0.2
21 | KSKK | ≤ 0.2

Row | Variant | one-hybrid fitness for binding NBS DNA
22 | LRTP | ≤ 0.2
23 | LFKF | ≤ 0.2
24 | MYNG | ≤ 0.2
25 | KASR | ≤ 0.2
26 | SEAW | ≤ 0.2
27 | LCIN | ≤ 0.2
28 | DAHM | ≤ 0.2
29 | RDNQ | ≤ 0.2
30 | WHKS | ≤ 0.2
31 | THNK | ≤ 0.2
32 | VDKT | ≤ 0.2
33 | LGSA | ≤ 0.2
34 | TLQG | ≤ 0.2
35 | RCVF | ≤ 0.2
36 | THMN | ≤ 0.2
37 | DRQW | ≤ 0.2
38 | YKKR | 0.319
39 | FWPT | 0.321
40 | WFNS | ≤ 0.2
41 | GESV | ≤ 0.2
42 | NVQR | ≤ 0.2

Row | Variant | one-hybrid fitness for binding NBS DNA
43 | RMFS | 0.221
44 | WCPM | ≤ 0.2
45 | TKFG | ≤ 0.2
46 | VLCT | ≤ 0.2
47 | QYQG | ≤ 0.2
48 | PSVD | ≤ 0.2
49 | PMQL | ≤ 0.2
50 | LAAI | ≤ 0.2
51 | GQIR | ≤ 0.2
52 | PRSE | ≤ 0.2
53 | VLTL | ≤ 0.2
54 | NLMF | ≤ 0.2
55 | TRIA | ≤ 0.2
56 | NTAN | ≤ 0.2
57 | PDVT | ≤ 0.2
58 | RNEL | ≤ 0.2
59 | CVGA | ≤ 0.2
60 | MVYK | ≤ 0.2
61 | QLDK | ≤ 0.2
62 | TALG | ≤ 0.2
63 | VMKG | ≤ 0.2

Row | Variant | one-hybrid fitness for binding NBS DNA
64 | EFIV | ≤ 0.2
65 | QQKH | 0.657
66 | SKSS | ≤ 0.2
67 | KSPS | ≤ 0.2
68 | LSEW | ≤ 0.2
69 | SLNH | ≤ 0.2
70 | LRKA | ≤ 0.2
71 | ACEG | ≤ 0.2
72 | HRLA | ≤ 0.2
73 | PCRR | ≤ 0.2
74 | NCNP | ≤ 0.2
75 | DPTS | ≤ 0.2
76 | MKSS | ≤ 0.2
77 | NRNT | ≤ 0.2
78 | ELLH | ≤ 0.2
79 | PQAC | ≤ 0.2
80 | HMPM | ≤ 0.2
81 | NKSS | ≤ 0.2
82 | HAPE | ≤ 0.2
83 | VWGC | ≤ 0.2
84 | QTKP | 0.41
